The supplement of paper PMC4166925
± gives the standard deviation of the averaged measurements. Whole data set: some 33,000 sequences, median “E-score (dimensionless, -0.5 to 0.5)” near -0.049, cut for the highest 2% near 0.37. The list shows a part of the results.

test system: T1, PmTbr T-box DNA-binding domain (GST fusion); assay: PBM E-score of 8-mer (E-score (dimensionless, -0.5 to 0.5)); Tbr is Tbrain of the sea star Patiria miniata (Pm) or the sea urchin Strongylocentrotus purpuratus (Sp); higher = stronger binding preference; most listed sequences are background and not binding sites; conditions: the construct has about 5 more residues each side
T1 sequence: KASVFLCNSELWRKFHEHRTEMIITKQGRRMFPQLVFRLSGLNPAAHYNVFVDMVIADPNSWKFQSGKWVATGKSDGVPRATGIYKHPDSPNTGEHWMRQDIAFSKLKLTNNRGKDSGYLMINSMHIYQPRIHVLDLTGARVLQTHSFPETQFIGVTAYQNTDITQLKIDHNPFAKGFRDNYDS
Procedure: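 Universal protein-binding microarray (Agilent AMADID 016060, 60-bp probes with a 35-bp variable region) incubated with 200 nM GST-fused Patiria miniata Tbr T-box DNA-binding domain (residues 272-466) in PBS pH 7.5. Scored for every ungapped 8-mer (given with its reverse complement) by the Universal PBM Analysis Suite as E-score (modified Wilcoxon-Mann-Whitney enrichment, range -0.5 to 0.5; >0.45 counts as bound) and Z-score of median probe intensity. Two replicate arrays (datasets 1 and 2).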
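Also: 200 nM protein in PBS on universal arrays averaged over duplicate arrays.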

Row | Sequence | PBM E-score of 8-mer
1 | ATTCCTCA | -0.108 ± 0.025
2 | CCGAAACA | -0.00945 ± 0.018
3 | ACACATTA | 0.264 ± 0.008
4 | ACGCATAA | -0.118 ± 0.039
5 | AGCCCTGG | -0.26 ± 0.018
6 | GGCCCTCA | -0.295 ± 0.033
7 | GCCACTAC | 0.147 ± 0.013
8 | GGCACGTA | 0.0287 ± 0.0079
9 | AGTCGGAG | -0.144 ± 0.002
10 | GCAACGGC | 0.0371 ± 0.011
11 | ATACGGGG | -0.144 ± 0.043
12 | CTTTCGAC | 0.0243 ± 0.02
13 | AAACTGGC | 0.13 ± 0.044
14 | ATCAGAAC | -0.365 ± 0.033
15 | AGGGGGTA | 0.00961 ± 0.032
16 | AGCTGGCA | 0.142 ± 0.022
17 | CCTTGCGA | 0.243 ± 0.012
18 | ATTATACC | 0.119 ± 0.0056
19 | ATATTGCA | 0.0576 ± 0.082
20 | TAGCCAAA | -0.194 ± 0.012
21 | TGACCCAA | -0.145 ± 0.0015
22 | CTCTAGTC | -0.239 ± 0.017
23 | AGTGCATG | -0.347 ± 0.018
24 | GCCTTCAA | -0.155 ± 0.025
25 | ATATCGCC | 0.139 ± 0.029

Row | Sequence | PBM E-score of 8-mer
26 | CAACCGTC | 0.0479 ± 0.024
27 | ACTTTCAC | 0.313 ± 0.0082
28 | AACACACT | 0.229 ± 0.021
29 | CCTAGCGC | 0.153 ± 0.098
30 | ACAAAGCT | -0.165 ± 0.021
31 | AATAGTAG | -0.0825 ± 0.047
32 | GTTTGATA | -0.123 ± 0.13
33 | CGCAATTA | 0.00835 ± 0.072
34 | AAAGTACG | -0.13 ± 0.044
35 | GTCATACA | 0.0295 ± 0.042
36 | CTGGGTAC | -0.184 ± 0.07
37 | AGTGGAAC | 0.00316 ± 0.023
38 | AGGTCACT | 0.071 ± 0.038
39 | ACGGTAGG | -0.191 ± 0.084
40 | AGCGAACC | -0.0638 ± 0.0049
41 | TCCGTAGA | -0.294 ± 0.049
42 | TAAACCTA | -0.0446 ± 0.025
43 | CAGGCTTA | -0.197 ± 0.047
44 | AAACCGTA | -0.102 ± 0.012
45 | AATCATCC | -0.13 ± 0.073
46 | ATTCGCTA | 0.231 ± 0.016
47 | CATACGGC | -0.163 ± 0.044
48 | GATATAGA | -0.4 ± 0.014
49 | AGGGCGCC | 0.0863 ± 0.013
50 | CTCATCAA | -0.0963 ± 0.0034

Row | Sequence | PBM E-score of 8-mer
51 | ATGATCTA | -0.256 ± 0.043
52 | CGATAGCA | 0.211 ± 0.016
53 | CGACCCCA | 0.0119 ± 0.012
54 | CTCAACCA | -0.14 ± 0.014
55 | ACGGTTGG | 0.0218 ± 0.01
56 | ACTAGGCT | -0.0822 ± 0.0071
57 | CACGCACC | 0.281 ± 0.035
58 | ACCAGTAC | -0.152 ± 0.068
59 | AGGCTAGA | -0.144 ± 0.04
60 | CTGTCTGC | -0.0547 ± 0.12
61 | CCTTCTAG | -0.17 ± 0.038
62 | ACTCTCGA | 0.0126 ± 0.0063
63 | AGCTAGGG | -0.0348 ± 0.0053
64 | CAGCCCAC | -0.148 ± 0.034
65 | GCGGGGCC | -0.183 ± 0.017
66 | ACAGTCCG | -0.0728 ± 0.0024
67 | CGTATTAA | -0.182 ± 0.053
68 | ACCCTATG | 0.103 ± 0.024
69 | ACTAAGTC | -0.15 ± 0.015
70 | CCCGGCCC | -0.0935 ± 0.0013
71 | TATAAAGA | -0.19 ± 0.016
72 | ACTATCGC | 0.24 ± 0.015
73 | AAAGCTGT | 0.199 ± 0.051
74 | GCCAATAA | -0.101 ± 0.046
75 | CTTCTTAC | -0.0227 ± 0.035

Row | Sequence | PBM E-score of 8-mer
76 | AATGAACG | -0.108 ± 0.021
77 | AATACGAG | -0.144 ± 0.014
78 | AACCATCC | -0.268 ± 0.02
79 | AACCTACC | -0.0696 ± 0.071
80 | CAGGCTCC | -0.2 ± 0.033
81 | AACAAAAT | -0.126 ± 0.08
82 | AGGAGGAC | -0.396 ± 0.055
83 | CCGCTCTA | 0.0173 ± 0.017
84 | CTGGGGGA | -0.184 ± 0.011
85 | CAATGGGG | -0.167 ± 0.036
86 | CGAACACC | 0.3416 ± 0.0028
87 | CATAGTTC | -0.0987 ± 0.098
88 | GCATGGCC | -0.173 ± 0.1
89 | GCCTTCCC | -0.248 ± 0.073
90 | TCGTACGA | 0.163 ± 0.015
91 | AACCACGG | 0.044 ± 0.11
92 | ATATAATC | 0.0369 ± 0.11
93 | ATTGGGCC | -0.167 ± 0.011
94 | CCCAGCGG | -0.0719 ± 0.007
95 | CGGCATTA | -0.201 ± 0.049
96 | CGCATTAA | -0.123 ± 0.058
97 | AACCTTGG | -0.183 ± 0.041
98 | CCTCCTGC | 0.0635 ± 0.0095
99 | CTGGACAA | 0.0428 ± 0.043
100 | CAACCCAG | -0.168 ± 0.015

Row | Sequence | PBM E-score of 8-mer
101 | ACCACCGA | -0.102 ± 0.017
102 | CGACAAAA | 0.2703 ± 0.00057
103 | GGTTTTGA | -0.061 ± 0.055
104 | GGTTCAGA | 0.0331 ± 0.047
105 | AGTGCGAT | 0.427 ± 0.0052
106 | TCTGCCCA | 0.0729 ± 0.1
107 | CCGATACC | -0.0575 ± 0.018
108 | TCCAGAGA | -0.0321 ± 0.029
109 | TCAATAAA | -0.035 ± 0.048
110 | AGAGGACC | -0.212 ± 0.012
111 | CTTTTGGA | -0.0115 ± 0.037
112 | CCCTCACA | 0.174 ± 0.058
113 | ACCATCTC | -0.0247 ± 0.023
114 | ATTCAGGA | -0.176 ± 0.0068
115 | CCATATGA | -0.252 ± 0.018
116 | ATAGAGGC | -0.0323 ± 0.029
117 | AAAGAACT | -0.235 ± 0.0052
118 | GCATGGTA | -0.0838 ± 0.006
119 | CTTCACGA | 0.0848 ± 0.025
120 | AGTATCGC | 0.217 ± 0.0038
121 | GTATCGAA | 0.106 ± 0.012
122 | CTTTTCGA | -0.125 ± 0.047
123 | TATTCGCA | 0.357 ± 0.022
124 | CGAACAAA | -0.0147 ± 0.032
125 | CCCACCGC | 0.11 ± 0.051

Row | Sequence | PBM E-score of 8-mer
126 | GACCTCAA | -0.0689 ± 0.019
127 | CAGCGAAG | 0.222 ± 0.0074
128 | ATCTCCTG | -0.14 ± 0.0054
129 | GCGGCGCC | 0.161 ± 0.034
130 | ATTGTTCG | -0.0265 ± 0.029
131 | GCACGCCA | 0.0289 ± 0.062
132 | CAACCGAG | 0.0284 ± 0.0078
133 | GCTCGAAA | -0.0748 ± 0.028
134 | TCTCTAAA | -0.135 ± 0.028
135 | TGGACACA | -0.0183 ± 0.022
136 | GCAGGGTA | -0.0138 ± 0.034
137 | ATGAGGTG | 0.382 ± 0.018
138 | AATCCCTG | -0.189 ± 0.024
139 | ATCGCTCG | -0.0889 ± 0.075
140 | ACGATAAC | 0.0614 ± 0.045
141 | ACTACACT | 0.0796 ± 0.029
142 | TTTATAAA | -0.387 ± 0.13
143 | ACTGGAAC | -0.171 ± 0.018
144 | AAGCCAGT | -0.153 ± 0.051
145 | AGTCGATG | -0.0426 ± 0.053
146 | AAGACGAG | -0.305 ± 0.021
147 | CGATGATC | 0.0166 ± 0.039
148 | ATGTCACG | 0.262 ± 0.012
149 | AGGGAGGC | -0.108 ± 0.018
150 | ACTCGCGG | 0.264 ± 0.031

Row | Sequence | PBM E-score of 8-mer
151 | GAGGCAAA | -0.183 ± 0.099
152 | AGCGTTGA | 0.102 ± 0.055
153 | GACGGTGC | 0.0989 ± 0.077
154 | GTGGCCAC | 0.11 ± 0.086
155 | CGGTTAAA | -0.136 ± 0.049
156 | ACTGCATC | -0.0791 ± 0.01
157 | GAGGTTGA | 0.0675 ± 0.0098
158 | CCTAGCGA | 0.165 ± 0.037
159 | ATTATAAA | -0.14 ± 0.012
160 | AAGCCCCG | -0.167 ± 0.025
161 | GACTCAGA | -0.213 ± 0.097
162 | AATTTGAC | 0.0502 ± 0.13
163 | CAGACCAC | -0.226 ± 0.05
164 | TACCGAGA | -0.129 ± 0.068
165 | TTGAGCAA | -0.0163 ± 0.022
166 | GCAGAGAC | -0.244 ± 0.025
167 | GAGTACGC | 0.121 ± 0.057
168 | GAACTGGC | -0.193 ± 0.076
169 | ACTACGCG | 0.0285 ± 0.0016
170 | CCGAATCG | 0.0234 ± 0.023
171 | AGACCACA | -0.115 ± 0.062
172 | AGAAGAGC | -0.303 ± 0.11
